Test results as given in publication PMC2442059.
Results are given in words; binding and its absence hold for the method and conditions named. Binding seen in cells or lysates may run through a third protein. Some results given as binding are weak or reduced against the parent protein; the word gives no strength.

The chains behind the UniProt entries cited, without tags or fusion partners. Where a name states a change or a piece, a line headed by the entry shows the natural chain unless it says otherwise. Residues count along the entry.
UniProt P12023, residues 18-770: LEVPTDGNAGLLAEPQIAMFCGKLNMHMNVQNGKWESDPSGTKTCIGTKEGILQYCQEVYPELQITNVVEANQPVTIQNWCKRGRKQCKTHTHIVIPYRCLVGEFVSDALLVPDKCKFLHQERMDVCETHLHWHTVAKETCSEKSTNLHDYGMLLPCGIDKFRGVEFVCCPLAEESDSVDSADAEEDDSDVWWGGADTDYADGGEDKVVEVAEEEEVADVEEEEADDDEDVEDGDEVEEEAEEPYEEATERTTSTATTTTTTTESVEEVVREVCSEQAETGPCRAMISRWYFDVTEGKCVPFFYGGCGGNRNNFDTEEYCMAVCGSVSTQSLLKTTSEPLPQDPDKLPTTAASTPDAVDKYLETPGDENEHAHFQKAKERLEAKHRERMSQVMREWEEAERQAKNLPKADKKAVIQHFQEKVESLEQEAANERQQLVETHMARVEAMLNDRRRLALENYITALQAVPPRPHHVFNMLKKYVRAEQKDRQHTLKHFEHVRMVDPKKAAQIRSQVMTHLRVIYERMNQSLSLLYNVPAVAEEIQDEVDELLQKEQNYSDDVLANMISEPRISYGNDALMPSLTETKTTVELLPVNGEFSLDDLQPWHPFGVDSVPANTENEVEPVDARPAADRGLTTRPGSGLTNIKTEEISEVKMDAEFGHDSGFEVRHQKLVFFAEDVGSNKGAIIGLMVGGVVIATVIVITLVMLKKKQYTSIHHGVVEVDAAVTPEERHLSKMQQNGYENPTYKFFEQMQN
UniProt P49134, residues 21-799: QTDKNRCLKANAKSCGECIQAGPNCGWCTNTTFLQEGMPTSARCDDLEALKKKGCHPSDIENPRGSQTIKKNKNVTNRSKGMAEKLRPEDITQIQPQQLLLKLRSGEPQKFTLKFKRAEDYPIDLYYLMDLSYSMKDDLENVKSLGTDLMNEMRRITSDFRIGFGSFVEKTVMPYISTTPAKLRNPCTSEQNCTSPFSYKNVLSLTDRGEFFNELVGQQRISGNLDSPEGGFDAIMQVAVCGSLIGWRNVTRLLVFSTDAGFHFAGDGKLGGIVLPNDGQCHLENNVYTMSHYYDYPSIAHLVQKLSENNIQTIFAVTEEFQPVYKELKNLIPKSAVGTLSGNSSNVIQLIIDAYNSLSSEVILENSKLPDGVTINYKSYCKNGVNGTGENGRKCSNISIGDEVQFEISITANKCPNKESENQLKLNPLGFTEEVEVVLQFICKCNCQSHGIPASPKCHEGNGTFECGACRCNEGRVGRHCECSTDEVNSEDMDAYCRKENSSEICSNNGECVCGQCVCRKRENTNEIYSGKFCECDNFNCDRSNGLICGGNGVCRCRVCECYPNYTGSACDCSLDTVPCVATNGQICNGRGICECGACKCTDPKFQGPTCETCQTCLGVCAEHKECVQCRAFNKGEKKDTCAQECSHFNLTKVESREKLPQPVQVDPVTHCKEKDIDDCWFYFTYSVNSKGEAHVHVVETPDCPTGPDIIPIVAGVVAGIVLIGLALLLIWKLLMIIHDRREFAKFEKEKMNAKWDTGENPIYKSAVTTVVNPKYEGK
UniProt P09055, residues 21-798: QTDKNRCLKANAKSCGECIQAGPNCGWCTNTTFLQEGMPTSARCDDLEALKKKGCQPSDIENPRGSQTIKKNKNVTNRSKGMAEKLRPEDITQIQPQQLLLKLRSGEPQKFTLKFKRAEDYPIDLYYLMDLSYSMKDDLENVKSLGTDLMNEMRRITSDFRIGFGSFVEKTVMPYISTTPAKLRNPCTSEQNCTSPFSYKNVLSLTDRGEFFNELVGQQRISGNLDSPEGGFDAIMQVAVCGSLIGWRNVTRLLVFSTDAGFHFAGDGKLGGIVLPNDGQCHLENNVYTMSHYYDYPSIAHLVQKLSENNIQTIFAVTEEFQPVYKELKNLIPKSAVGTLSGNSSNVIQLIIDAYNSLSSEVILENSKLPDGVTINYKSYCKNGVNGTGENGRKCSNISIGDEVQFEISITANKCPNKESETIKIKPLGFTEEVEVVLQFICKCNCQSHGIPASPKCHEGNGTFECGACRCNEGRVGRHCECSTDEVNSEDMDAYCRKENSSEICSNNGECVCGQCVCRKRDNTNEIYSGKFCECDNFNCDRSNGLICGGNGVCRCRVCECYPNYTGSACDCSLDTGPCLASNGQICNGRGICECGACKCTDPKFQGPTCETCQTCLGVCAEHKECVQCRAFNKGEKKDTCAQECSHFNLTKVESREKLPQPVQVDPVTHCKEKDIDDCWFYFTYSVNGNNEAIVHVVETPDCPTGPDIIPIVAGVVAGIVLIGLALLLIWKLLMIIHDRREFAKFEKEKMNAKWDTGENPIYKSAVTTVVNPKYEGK
UniProt P12821, residues 30-1306: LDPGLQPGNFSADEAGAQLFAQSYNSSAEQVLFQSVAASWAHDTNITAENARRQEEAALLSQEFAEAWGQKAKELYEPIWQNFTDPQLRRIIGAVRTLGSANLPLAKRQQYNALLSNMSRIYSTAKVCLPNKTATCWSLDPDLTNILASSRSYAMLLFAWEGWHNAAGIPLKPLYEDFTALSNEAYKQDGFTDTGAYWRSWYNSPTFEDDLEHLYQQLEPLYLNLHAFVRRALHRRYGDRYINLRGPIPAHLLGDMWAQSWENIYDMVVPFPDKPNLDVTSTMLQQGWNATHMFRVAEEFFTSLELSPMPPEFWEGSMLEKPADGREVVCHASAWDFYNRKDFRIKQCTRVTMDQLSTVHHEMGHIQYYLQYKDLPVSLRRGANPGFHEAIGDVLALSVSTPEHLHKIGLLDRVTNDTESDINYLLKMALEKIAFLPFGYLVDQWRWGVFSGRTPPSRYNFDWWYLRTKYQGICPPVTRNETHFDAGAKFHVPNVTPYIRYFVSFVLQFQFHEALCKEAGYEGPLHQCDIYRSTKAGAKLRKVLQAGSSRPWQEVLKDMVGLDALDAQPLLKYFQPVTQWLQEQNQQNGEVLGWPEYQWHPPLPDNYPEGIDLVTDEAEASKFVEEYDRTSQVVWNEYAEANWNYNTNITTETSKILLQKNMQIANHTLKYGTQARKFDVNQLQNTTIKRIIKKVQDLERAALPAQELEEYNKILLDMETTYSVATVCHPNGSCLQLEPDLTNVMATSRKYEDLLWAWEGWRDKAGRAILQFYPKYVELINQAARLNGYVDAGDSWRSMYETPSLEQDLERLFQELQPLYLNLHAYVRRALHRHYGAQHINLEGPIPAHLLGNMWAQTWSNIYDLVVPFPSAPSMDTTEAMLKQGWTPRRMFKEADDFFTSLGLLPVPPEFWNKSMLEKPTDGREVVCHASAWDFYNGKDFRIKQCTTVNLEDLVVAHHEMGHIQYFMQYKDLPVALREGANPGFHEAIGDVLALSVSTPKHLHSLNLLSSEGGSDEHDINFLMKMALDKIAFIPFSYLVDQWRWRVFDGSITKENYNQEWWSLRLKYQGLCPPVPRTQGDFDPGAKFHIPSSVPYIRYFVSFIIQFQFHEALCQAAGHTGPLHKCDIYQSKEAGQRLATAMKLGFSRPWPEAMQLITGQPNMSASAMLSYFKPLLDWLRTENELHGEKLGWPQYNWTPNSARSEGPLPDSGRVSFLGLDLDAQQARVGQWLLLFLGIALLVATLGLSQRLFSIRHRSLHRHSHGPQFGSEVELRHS
UniProt P05556: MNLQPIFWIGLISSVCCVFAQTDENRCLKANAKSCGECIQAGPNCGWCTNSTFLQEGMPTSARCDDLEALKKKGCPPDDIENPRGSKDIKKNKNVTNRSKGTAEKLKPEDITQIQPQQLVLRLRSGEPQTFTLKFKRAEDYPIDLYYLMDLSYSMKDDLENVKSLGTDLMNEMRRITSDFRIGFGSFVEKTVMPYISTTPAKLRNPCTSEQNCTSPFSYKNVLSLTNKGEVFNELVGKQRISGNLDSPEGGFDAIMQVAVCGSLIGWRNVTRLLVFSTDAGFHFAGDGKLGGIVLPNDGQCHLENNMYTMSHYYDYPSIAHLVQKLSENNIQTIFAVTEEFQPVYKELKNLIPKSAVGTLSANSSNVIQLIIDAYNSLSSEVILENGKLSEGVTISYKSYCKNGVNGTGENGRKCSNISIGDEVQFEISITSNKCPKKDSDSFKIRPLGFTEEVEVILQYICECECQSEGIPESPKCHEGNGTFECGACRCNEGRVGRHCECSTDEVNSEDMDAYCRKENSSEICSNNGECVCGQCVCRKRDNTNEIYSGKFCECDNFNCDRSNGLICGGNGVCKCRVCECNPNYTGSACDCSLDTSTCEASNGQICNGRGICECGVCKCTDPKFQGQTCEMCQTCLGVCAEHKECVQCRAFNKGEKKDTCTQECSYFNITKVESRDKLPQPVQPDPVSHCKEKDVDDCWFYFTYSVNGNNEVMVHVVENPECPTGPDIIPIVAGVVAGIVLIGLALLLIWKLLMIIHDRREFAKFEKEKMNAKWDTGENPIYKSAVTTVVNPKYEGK
UniProt P08592, residues 18-770: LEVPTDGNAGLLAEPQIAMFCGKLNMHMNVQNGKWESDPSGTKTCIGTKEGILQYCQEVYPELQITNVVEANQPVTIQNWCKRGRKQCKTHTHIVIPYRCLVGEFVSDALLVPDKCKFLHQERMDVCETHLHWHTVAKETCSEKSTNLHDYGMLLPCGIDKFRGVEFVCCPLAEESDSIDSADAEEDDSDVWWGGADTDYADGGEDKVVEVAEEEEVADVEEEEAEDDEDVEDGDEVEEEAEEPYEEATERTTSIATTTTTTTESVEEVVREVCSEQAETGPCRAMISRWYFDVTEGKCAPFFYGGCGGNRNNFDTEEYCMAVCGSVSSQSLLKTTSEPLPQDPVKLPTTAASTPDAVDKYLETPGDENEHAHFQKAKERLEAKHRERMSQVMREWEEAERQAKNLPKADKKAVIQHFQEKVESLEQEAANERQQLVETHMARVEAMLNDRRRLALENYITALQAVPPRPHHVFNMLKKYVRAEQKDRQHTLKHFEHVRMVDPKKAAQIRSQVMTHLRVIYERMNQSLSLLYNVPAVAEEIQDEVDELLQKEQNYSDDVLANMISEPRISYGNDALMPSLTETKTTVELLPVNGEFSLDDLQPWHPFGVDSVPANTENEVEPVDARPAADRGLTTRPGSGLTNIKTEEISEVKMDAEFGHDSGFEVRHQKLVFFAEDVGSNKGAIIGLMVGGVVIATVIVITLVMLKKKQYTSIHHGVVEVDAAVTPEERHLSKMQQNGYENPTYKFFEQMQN
UniProt Q06481, residues 32-763: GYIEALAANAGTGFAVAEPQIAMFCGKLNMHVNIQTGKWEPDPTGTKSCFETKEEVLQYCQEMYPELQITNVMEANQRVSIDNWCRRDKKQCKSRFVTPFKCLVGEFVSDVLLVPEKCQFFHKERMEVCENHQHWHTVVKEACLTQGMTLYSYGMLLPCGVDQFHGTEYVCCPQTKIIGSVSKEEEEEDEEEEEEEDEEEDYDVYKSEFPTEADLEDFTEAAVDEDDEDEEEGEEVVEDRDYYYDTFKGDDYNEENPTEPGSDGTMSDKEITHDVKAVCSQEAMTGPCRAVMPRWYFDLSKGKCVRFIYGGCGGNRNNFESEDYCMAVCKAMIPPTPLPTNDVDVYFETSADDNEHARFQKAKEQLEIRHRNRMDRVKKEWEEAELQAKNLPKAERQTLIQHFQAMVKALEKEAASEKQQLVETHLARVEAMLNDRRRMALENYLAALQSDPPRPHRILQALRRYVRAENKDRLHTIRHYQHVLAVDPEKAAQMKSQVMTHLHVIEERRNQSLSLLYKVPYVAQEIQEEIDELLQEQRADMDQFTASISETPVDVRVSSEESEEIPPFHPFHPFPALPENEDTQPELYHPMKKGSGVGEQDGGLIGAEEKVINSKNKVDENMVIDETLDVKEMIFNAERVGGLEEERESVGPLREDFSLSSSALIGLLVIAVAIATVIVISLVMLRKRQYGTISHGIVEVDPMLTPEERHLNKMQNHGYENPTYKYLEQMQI

Assays:
[1] = biological target: murine APP with a carboxy-terminal FLAG tag (mouse) (UniProt P12023); assay: co-IP; competition: CHO cells co-transfected with APP-FLAG and human Itgβ1; after 48 h control CM or APPs-α CM applied for 8-12 h; lysed, M2-agarose immunoprecipitation, Licor quantification
[2] = biological target: endogenous rat Integrin β1 (rat (endogenous in E18 primary neurons and cortex)) (UniProt P49134); assay: co-IP; endogenous proteins; lysates of E18 rat primary neurons and rat cortex immunoprecipitated with anti-Itgβ1 (MAB 1997), western blotted for APP
[3] = biological target: FLAG-tagged murine Integrin β1 (mouse) (UniProt P09055); assay: co-IP; CHO cells transiently co-transfected, lysed after 48 h in 1% NP-40 STEN buffer (150 mM NaCl, 50 mM Tris, 2 mM EDTA); immunoprecipitated with M2 anti-FLAG agarose; western blot
[4] = biological target: FLAG-tagged angiotensin converting enzyme (UniProt P12821); assay: as above
[5] = biological target: endogenous mouse APP (mouse (endogenous in brain)) (UniProt P12023); assay: co-IP; endogenous proteins; total mouse brain lysate immunoprecipitated with anti-APP (C9) for 30 minutes or overnight, western blotted for Itgβ1; anti-Tbr1 as control

For “human Integrin β1 (from UniProt P05556 21-798) (receptor)”, the binding [1] was “binds”.

For “endogenous rat APP (from UniProt P08592 18-770)”, the binding [2] was “binds”.

APLP2 (from UniProt Q06481 32-763) was tested, and the binding [3] was “binds”.

“human APP, 695 amino acid splice variant (from UniProt P05067-4 18-695)” was tested, and the binding [4] was “no binding”.

“endogenous mouse Integrin β1 (from UniProt P09055 21-798) (receptor)” was tested, and the binding [5] was “binds”.
